Consider 24 sequences from the supplement of paper PMC11417369.

± gives the standard deviation of the averaged measurements. The list shows a part of the results.

In the experiment the test system is PfAP2-EXP AP2 domain (GST-tagged). The experiment can be described thus: gcPBM binding intensity (ln(normalized median fluorescence intensity)); higher = stronger DNA binding. In a few lines:
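The highest Masliner-normalised natural-log median intensity across replicate spots of either probe orientation is reported as binding intensity. GST-tagged P. falciparum DNA-binding domains expressed in E. coli were applied for 1 h to an Agilent 4 × 180k array of primer-extended double-stranded 36-bp intergenic genomic probes plus negative controls, and bound protein was detected with Alexa488 anti-GST antibody and scanned at 488 nm.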
Regarding “TATATATCTGTGAAAATACTTAAATTGTTATAAAAA [CACACA_negctrl_site1109]”, the “gcPBM binding intensity (ln)” value stood at 8.11 ± 0.34.
On to “ACCTATTTCAAACACACACACACACTAACAAACATA [CACACA_site8233]”, for which the “gcPBM binding intensity (ln)” value came out at 8.74 ± 0.4.
For “AAAAAAAAAATGAGCACACATAAATAAAAACAAACA [CACACA_site1573]”, the “gcPBM binding intensity (ln)” value was determined as 8.8 ± 0.5.
As for “AAAACATCAAAAATGTGTACATATATATATATATAT [XGTACX_site8884]”, the “gcPBM binding intensity (ln)” value stood at 10.3 ± 0.21.
As to “ATATATATATATGCATGTACATATTTATCTTTATAT [XGTACX_site232]”, the “gcPBM binding intensity (ln)” value came to 10 ± 0.28.
In the case of “AACATATATTAGCTTACATGCAAAAAGTAAAAAAAT [TGCATGCA_site10]”, the “gcPBM binding intensity (ln)” value is 9.29 ± 0.16.
The figure for “AATTTAAAACGGAGATGTACATATATAAATATATAC [XGTACX_site3723]” is 8.63 ± 0.4; for “AATATTTTAAATATTGCATGCAATGAAAAATGTAAA [TGCATGCA_site139]” it is 10.2 ± 0.31.
Regarding “TTTTAAAATTTTTTTTTTTTTTTTTTATGAACAAGT [GTGCAC_negctrl_site124]”, the “gcPBM binding intensity (ln)” value turned out to be 7.91 ± 0.41.
For “TTTTAAAGAAAATATTTTATCATTATTTTTTGTACT [CACACA_negctrl_site1648]”, the “gcPBM binding intensity (ln)” value came to 8.32 ± 0.37.
For “TCTTATTTTTTTATATATACAAAGTTTTATATATAT [GTGCAC_negctrl_site314]”, the “gcPBM binding intensity (ln)” value was determined as 8.69 ± 0.35.
Consider “ATAGTAAATATAAAAAGTACTGATTCTTAAATTGTT [XGTACX_site5972]”, for which the “gcPBM binding intensity (ln)” value came to 8.6 ± 0.46.
The figure for “GTTCAATCGGGTGTTACTTCAAACAAGGAACAACAA [TGCATGCA_negctrl_site471]” is 8.61 ± 0.5.
As to “ACTTGACACCAACACACACACATATATAAAAAAAAA [CACACA_site756]”, the “gcPBM binding intensity (ln)” value amounted to 8.55 ± 0.33.
The figure for “TATTTTATTGTTGTTATACACACCATATAAAATATT [CACACA_site1630]” is 8.57 ± 0.41; for “AAAAAAAAAAAAAAAGTGCACTGAAAATATATTGAA [GTGCAC_site9395]” it is 9.04 ± 0.2; for “TTTTTAATTATTTATATAACGATAATCCTTACATAA [TGCATGCA_negctrl_site180]” it is 8.14 ± 0.41.
The result for “AACAAAAATGAAAAAACACACATAACATATATAAAT [CACACA_site740]” reads 8.79 ± 0.5.
As to “ATAATATAAATAAAAACACACACAATCGTACATATA [CACACA_site9223]”, the “gcPBM binding intensity (ln)” value worked out at 8.87 ± 0.46.
For the sequence “TATATAGAAAACAAGGCATGCAAATAACAAATTGTG [TGCATGCA_site473]”, the “gcPBM binding intensity (ln)” value was 9.85 ± 0.36.
Consider “ATATATTGATATATGTGTACATAGCTTATTTCATTT [XGTACX_site1800]”, for which the “gcPBM binding intensity (ln)” value came out at 8.59 ± 0.25.
In the case of “ATATAATATATGTAAGTGCGCTTATAAATAAAACGA [GTGCAC_site9841]”, the “gcPBM binding intensity (ln)” value is 8.73 ± 0.4.
The figure for “AATAGAACAAATAAAACACACACATATATATATATA [CACACA_site8893]” is 10.1 ± 0.34; for “AAAAAAAAAAAAAAGACACACAATGTGAAATAATAA [CACACA_site804]” it is 8.4 ± 0.56.
